Laboratory results: ChEMBL document CHEMBL1201862, “PubChem BioAssay data set” (2004)
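The compound was tested at five concentrations on cells cultured in 96-well plates, with a 48-hour exposure period. GI50 = concentration required for 50% inhibition of growth.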 Calls of active or inactive are those of the source. Rule as the data show it: active = GI50 up to about 1.1 µM and inactive = higher.

Each compound was assayed on NCI-H322M (assay: NCI anticancer screen, dose series, 48 h).
With `COc1ccc(C(C)c2cc3c(cc2OC)OCO3)cc1` (centres undefined) the GI50 was active: 0.499 µM.
For `COc1cc(C=C2C(=O)NC(=O)NC2=O)cc(OC)c1OC`, the GI50 was inactive: > 100 µM.
For `Nc1ncnc2c1ncn2CC(O)CO` (centres undefined), the GI50 was inactive: > 100 µM.
For `COc1cc2c3cc1Oc1c(OC)c(OC)cc4c1C(Cc1ccc(O)c(c1)Oc1ccc(cc1)CC3N(C)CC2)N(C)CC4` (centres undefined), the GI50 was inactive: 54.3 µM.
In the case of `O=C1/C(=C/c2cccnc2)SC(=S)N1Cc1ccco1`, the GI50 is reported as inactive: 29.4 µM.
In the case of `COc1ccc2c(Cl)cc(NC(=S)Nc3ccccc3)nc2c1`, the GI50 is reported as inactive: 32 µM.
For `CN(Cc1cc(C(C)(C)C)cc(Br)c1O)Cc1cc(C(C)(C)C)cc(Br)c1O`, the GI50 was inactive: 5.5 µM.
`CC1=Nn2c(nc3sc4c(c3c2=O)CCCC4)SC1` was tested, and the GI50 was inactive: > 100 µM.
`COc1cc2c(cc1OC)C1Cc3cc(OC)c(OC)cc3C(C2)N1C` was tested, and the GI50 was inactive: > 75 µM.
For `CC1NOC(=O)C1/N=N/c1ccc(Cl)cc1Cl` (centres undefined), the GI50 was inactive: 28.6 µM.
For `COC(=O)C(C)(NC(=O)C(CC(=O)OC(C)(C)C)NC(=O)OC(C)(C)C)c1ccccc1` (centres undefined), the GI50 was inactive: > 100 µM.
`O=C(Nc1ccc(Cl)cc1)c1cc2cc(/N=N/c3ccccc3Cl)ccc2oc1=O` was tested, and the GI50 was inactive: 11 µM.
For `O=C(Nc1nnc(-c2ccc(Cl)cc2)o1)C(SC(=S)N1CCCCC1)c1ccccc1` (centres undefined), the GI50 was inactive: 20.7 µM.
With `Cc1ccc(S(=O)(=O)NNS(C)(=O)=O)cc1` the GI50 was inactive: > 100 µM.
`COC(=O)C1(SC)C2CCC3C2CCC31` (centres undefined) was tested, and the GI50 was inactive: > 100 µM.
For `Cc1ccc(NC(=O)CC2SC(Nc3ccc(Cl)cc3)=NC2=O)cc1C` (centres undefined), the GI50 was inactive: 24 µM.
With `Cc1cccc2oc3c(c(=O)c12)CC(O)C(C)(C)O3` (centres undefined) the GI50 was inactive: > 100 µM.
For `N#CSc1[nH]cnc1C(N)=O`, the GI50 was inactive: > 100 µM.
For `OC1c2ccccc2C(O)C2OC12` (centres undefined), the GI50 was inactive: > 100 µM.
In the case of `O=C1C(c2ccccc2)=[N+]([O-])c2ccc(Cl)cc21`, the GI50 is reported as inactive: > 100 µM.
With `COC(=O)C1=C(C)N(NC(N)=O)C(C)(O)C12CCOC2=O` (centres undefined) the GI50 was inactive: > 100 µM.
In the case of `CSc1cnc2ccccc2c1Sc1c[nH]c2ccccc2c1=O`, the GI50 is reported as inactive: 15.8 µM.
For `COc1ccc2[nH]c3c4c(cc(-c5ccccc5)c3c2c1)C(=O)N(c1ccccc1)C4=O`, the GI50 was inactive: > 58.3 µM.
With `Cn1cc(C2(C)CC(C)(C)c3c2n(C)c2ccccc32)c2ccccc21` (centres undefined) the GI50 was inactive: > 100 µM.
With `Cc1nn(C(=O)Cc2ccccc2)c2c1C(c1ccc([N+](=O)[O-])cc1)SC(=N)N2` (centres undefined) the GI50 was inactive: > 100 µM.
For `Cc1ccccc1OCC(COC(=O)Nc1ccccc1)OC(=O)Nc1ccccc1` (centres undefined), the GI50 was inactive: > 100 µM.
In the case of `S=c1nc(N2CCCCC2)c2cn[nH]c2[nH]1`, the GI50 is reported as inactive: 74.5 µM.
For `CC(C)(C)c1cc(COc2cc(COc3ccc(-c4c5c(nc6c4CCc4ccc(-c7c8ccccc8nc8ccccc78)cc4-6)-c4cc(-c6c7ccccc7nc7ccccc67)ccc4CC5)cc3)cc(OCc3cc(C(C)(C)C)cc(C(C)(C)C)c3)c2)cc(C(C)(C)C)c1`, the GI50 was inactive: > 100 µM.
In the case of `CSc1ccc(-c2cn3ccsc3n2)c(O)c1`, the GI50 is reported as inactive: > 100 µM.
`O=[N+]([O-])c1ccc2nc(O)n[n+]([O-])c2c1` was tested, and the GI50 was inactive: > 100 µM.
`CCOC(=O)NC(=O)c1cn(CCCCCCCCCCC(=O)NCCCN2CCN(CCCNC(=O)CCCCCCCCCCn3cc(C(=O)NC(=O)OCC)c(=O)[nH]c3=O)CC2)c(=O)[nH]c1=O` was tested, and the GI50 was inactive: > 100 µM.
In the case of `N#CC1(C#N)C2(c3ccccc3)OC(c3ccccc3)(c3cc4ccccc4cc32)C1(C#N)C#N`, the GI50 is reported as inactive: 15.5 µM.
In the case of `NC(=O)N/N=C(\Cc1cc(=O)oc2cc(O)ccc12)C(=O)Nc1ccccc1C(N)=O`, the GI50 is reported as inactive: > 100 µM.
`CCOC(=O)c1c(Br)c(-c2ccc([N+](=O)[O-])cc2)c(Br)n1C` was tested, and the GI50 was inactive: > 10 µM.
In the case of `CC(C)/C=C1\CCC(CN2CCCC2)C1=O` (centres undefined), the GI50 is reported as inactive: 23.2 µM.
With `COc1ccc(-n2c(=O)[nH]n(C(C)=O)c2=O)cc1` the GI50 was inactive: > 100 µM.
For `COc1ccc(N2C(=O)C3c4[nH]c5ccccc5c4C4CCCCCCC4C3C2=O)cc1` (centres undefined), the GI50 was inactive: 19.8 µM.
`O=C1C(NS(=O)(=O)c2ccccc2)=C(n2cnc3ccccc32)C(=O)c2ccccc21` was tested, and the GI50 was inactive: > 100 µM.
In the case of `CC(=O)O[C@@H]1C2=C(C)C=C(O2)[C@H]2O[C@]2(C)C[C@H]2C=C(C(=O)O2)[C@H](OC(C)=O)CC1[C@@]1(C)CO1` (some centres undefined), the GI50 is reported as inactive: > 100 µM.
With `COc1ccc2c(c1)[n+]([O-])c(-c1ccc([N+](=O)[O-])cc1)c(N)[n+]2[O-]` the GI50 was inactive: 61.8 µM.
With `COc1cc2c(c(OC)c1)C(=O)C(=O)C(CC1(C)OCCCO1)=C2` the GI50 was inactive: 14.6 µM.
In the case of `Fc1ccc(C2NC(=S)NC3=C2CCOc2c3ccc3ccccc23)cc1` (centres undefined), the GI50 is reported as inactive: > 100 µM.
`CCOC(=O)C1=C(C)Nc2ccccc2S1` was tested, and the GI50 was inactive: > 100 µM.
`O=C1CN(c2ccc(Cl)cc2)C(=O)CN1NCNN1CC(=O)N(c2ccc(Cl)cc2)CC1=O` was tested, and the GI50 was inactive: > 100 µM.
With `COC(=O)/C=C(/C(=O)OC)c1cc2ccc3c([nH]c4ccccc43)c(C)c-2c1` the GI50 was inactive: 12.1 µM.
`CN1C(=O)C(=CN)C(=O)N(C)C1=O` was tested, and the GI50 was inactive: > 100 µM.
In the case of `Cc1cc2ccccc2oc(=O)/c1=N\Nc1ccccc1`, the GI50 is reported as inactive: > 100 µM.
For `CS(=O)(=O)O[C@H]1CN2C[C@@H](O)[C@@H](O)[C@H]2[C@H]1CO.[B]`, the GI50 was inactive: > 100 µM.
For `O=[N+]([O-])/C(Cl)=C/C(=C1/Nc2ccccc2O1)[N+](=O)[O-]`, the GI50 was inactive: 16 µM.
With `O=C(CSc1c2ccccc2nc2ccccc12)Nc1ccccc1-c1ccccc1NC(=O)CSc1c2ccccc2nc2ccccc12` the GI50 was inactive: 32.7 µM.
For `[O-][S+](Nc1ccccc1)c1ccc(Cl)c(Cl)c1` (centres undefined), the GI50 was inactive: 50.2 µM.
For `CC(=O)Oc1c2ccsc2c(OC(C)=O)c2ccsc12`, the GI50 was inactive: 1.15 µM.
For `CNc1ccc(Cl)cc1C(=O)N1CCC[C@H]1CO`, the GI50 was inactive: > 100 µM.
In the case of `O=C(/N=N/c1cc(Cl)ccc1Cl)NNc1cc(Cl)ccc1Cl`, the GI50 is reported as inactive: 27.4 µM.
For `Oc1ccc2ccccc2c1/C=N/Cc1c(O)ccc2ccccc12`, the GI50 was inactive: > 100 µM.
`C/C(=C\COc1cc(O)c2c(c1)C(=O)c1cc(C)cc(O)c1C2=O)CCC1OC1(C)C` (centres undefined) was tested, and the GI50 was inactive: > 100 µM.
With `[O-][Cl+3]([O-])([O-])[O-].c1ccc(C[P+]2(c3ccccc3)CCCCC2)cc1` the GI50 was inactive: > 100 µM.
For `COc1nc(/C=N/NC(N)=S)nc(OC)n1`, the GI50 was inactive: 57.7 µM.
In the case of `CCOC(=O)C(=Cc1ccc(C(=O)OC)cc1)C(=O)OCC`, the GI50 is reported as inactive: 8.34 µM.
In the case of `CN(CCc1ccc(Br)cc1)CCN1CCCCC1`, the GI50 is reported as inactive: 81.5 µM.
`CCCO[C@@H]1[C@@H](OC(C)=O)[C@@H](OC(C)=O)C(C)(C)/C=C/[C@H](C)C(=O)[C@@]2(OC(C)=O)C[C@@](C)(OC(C)=O)[C@H](OC(C)=O)[C@@H]2[C@H]2OC(=O)CC[C@@]12OC(=O)c1ccccc1` was tested, and the GI50 was inactive: > 25 µM.
For `C=CC1(c2ccc(OC)cc2)OCCCO1`, the GI50 was inactive: > 100 µM.
With `COc1ccc2c(c1)OCC1Cc3ccccc3OC21` (centres undefined) the GI50 was inactive: > 100 µM.
`O=C(Nc1cccc(C(F)(F)F)c1)C(=O)C1NC(=S)NC1=O` (centres undefined) was tested, and the GI50 was inactive: > 100 µM.
For `CCC1CC(=O)N(SCC(N)C(=O)O)C1=O` (centres undefined), the GI50 was inactive: > 100 µM.
In the case of `CN1C(=O)C(=Cc2ccc(Br)cc2)C(=O)N(C)C1=O`, the GI50 is reported as inactive: > 100 µM.
`CCCCCCCCCCCCCC(=O)OCC1OC(=O)CC1O` (centres undefined) was tested, and the GI50 was inactive: > 100 µM.
With `COC(=O)c1[nH]c(=S)[nH]c(=O)c1-c1ccc(Cl)cc1` the GI50 was inactive: > 50 µM.
With `CC(C)(C)OC(=O)NCCC(N)=S` the GI50 was inactive: > 100 µM.
For `O=C1NC(=O)C2C1N(Cc1ccccc1)C(=O)N2Cc1ccccc1` (centres undefined), the GI50 was inactive: > 100 µM.
With `CCOC(=O)C(=CNc1ccc(NC2=NCC(C)S2)cc1)C(=O)OCC` (centres undefined) the GI50 was inactive: 59.4 µM.
With `CN1CCC/C1=N\C#N` the GI50 was inactive: > 100 µM.
With `CCOC(=O)[C@@H]1[C@@H]2NC(=O)N[C@@]1(C)Oc1ccccc12` the GI50 was inactive: > 100 µM.
`CC(C)OC(=O)c1ccc(CCC2=CC(=O)C(Br)=CC2=O)cc1` was tested, and the GI50 was inactive: 27.9 µM.
In the case of `CCN(CC)CCC1CCCCN1CC(=O)N1c2cc(Cl)ccc2NC(=O)CC1C` (centres undefined), the GI50 is reported as inactive: > 100 µM.
For `O=C1C(N2CCN(c3ccccn3)CC2)=C(Cl)C(=O)c2ncccc21`, the GI50 was inactive: > 10 µM.
With `O=C(CCc1ccccc1CO)NCCc1ccccc1` the GI50 was inactive: > 100 µM.
With `CC(=O)OC12CC[N+]3(C)CCCCC3C1=Nc1ccccc12` (centres undefined) the GI50 was inactive: > 100 µM.
For `CN1CCN(c2ncc3c(n2)sc2c(=O)n(-c4ccccc4)cnc23)CC1`, the GI50 was inactive: > 100 µM.
With `NC(=S)N/N=c1\cc(C(=O)Nc2ccc([N+](=O)[O-])cc2[N+](=O)[O-])oc2ccccc12` the GI50 was inactive: > 100 µM.
In the case of `COC(=O)[C@@]12CCCC(=O)[C@@H]1[C@H]1CCC[C@H]12`, the GI50 is reported as inactive: > 100 µM.
`COc1cc(C(C#N)NNC(=O)c2ccccc2O)ccc1O` (centres undefined) was tested, and the GI50 was inactive: 3.95 µM.
For `N#Cc1c2nc3ccccc3nc2n2ccccc12`, the GI50 was inactive: > 100 µM.
`NC(CCCCCCCCCCP(=O)(O)O)C(=O)O` (centres undefined) was tested, and the GI50 was inactive: > 100 µM.
With `COc1cc(CC(C)N)ccc1O` (centres undefined) the GI50 was inactive: > 100 µM.
In the case of `Cc1ccc(C(=O)Nc2ccc(CP(=O)(O)O)cc2CP(=O)(O)O)cc1N`, the GI50 is reported as inactive: > 100 µM.
`N#C/C(=C\c1ccc(O)cc1O)C(N)=O` was tested, and the GI50 was inactive: 43.4 µM.
For `C#CC[C@]12CC(=O)CC[C@H]1CC(=O)C2`, the GI50 was inactive: > 100 µM.
In the case of `C[C@]12CC[C@H]3[C@@H](CC=C4C[C@@H](O)CC[C@@]43C)[C@@H]1C[C@H](N1CCOCC1)[C@@H]2O`, the GI50 is reported as inactive: > 100 µM.
For `Cc1cc(/N=C/c2c(CO)cnc(C)c2O)c(/N=C/c2c(CO)cnc(C)c2O)cc1C.[Zn+2]`, the GI50 was inactive: > 100 µM.
For `COc1cc(C2c3cc4c(cc3[C@@H](Nc3cnc5ccccc5c3)C3COC(=O)[C@H]23)OCO4)cc(OC)c1O` (some centres undefined), the GI50 was inactive: 3.4 µM.
For `COc1cc(C2c3cc4c(cc3[C@@H](Oc3ccc(F)cc3)C3COC(=O)[C@H]23)OCO4)cc(OC)c1O` (some centres undefined), the GI50 was inactive: > 41.3 µM.
In the case of `O=C1c2scc(-c3ccccc3)c2-n2cccc21`, the GI50 is reported as inactive: 21.4 µM.
In the case of `COc1cc(/C=C(\C#N)C(N)=C(C#N)C#N)cc(O)c1O`, the GI50 is reported as inactive: > 82 µM.
